Reference: publication PMC6212790
The list shows a part of the results. At the low end of the ranking the order means little.

The sequences below were run against T1, GST-Rok-C97-191 (UniProt O34857) (assay: protein binding microarray). Conditions: Rok is a gene silencer of Bacillus subtilis; high values mean tight binding; most listed sequences are background and not binding sites; double strand, one strand shown.
T1 sequence: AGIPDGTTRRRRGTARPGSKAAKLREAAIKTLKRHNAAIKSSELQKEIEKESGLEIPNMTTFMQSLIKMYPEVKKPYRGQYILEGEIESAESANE
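Also: rank score from −0.5 (least bound) to 0.5 (best bound).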

| Sequence | binding signal [E-score] |
| --- | --- |
| CGATGACC | -0.125 |
| ATATCAGA | 0.158 |
| CTCACAAA | -0.132 |
| AGCCCCCA | -0.257 |
| AACTTCTA | 0.246 |
| CGCACCAG | -0.0622 |
| GTCCCACA | -0.063 |
| ACCGCCGA | -0.0492 |
| CGCATTAA | 0.0423 |
| CATCTCTC | -0.0253 |
| TAAGGCCA | -0.25 |
| AGGTCGGA | -0.222 |
| TCAGTGGA | 0.0206 |
| GGTACCAC | 0.126 |
| CCTGTAAA | -0.048 |
| CTAGCTAA | 0.127 |
| GGGTGGTA | -0.0481 |
| ACAACGAG | -0.0859 |
| GGATTCTA | 0.293 |
| AGTGAAAG | 0.102 |
| ATAAGTCG | 0.109 |
| ACTCATGC | -0.0442 |
| GCGATTTA | 0.234 |
| TAGACTAA | 0.172 |
| CTGGCCCA | -0.359 |

| Sequence | binding signal [E-score] |
| --- | --- |
| ATCCGAAG | -0.0324 |
| CGACACTA | -0.0236 |
| GGTTCGCA | -0.152 |
| AATCTCAC | 0.0152 |
| ATAATGCA | 0.312 |
| ATCGCATC | 0.153 |
| GACTCACC | -0.147 |
| AGAAAGGA | -0.254 |
| AATACGTC | 0.221 |
| CCATAGCA | -0.0019 |
| TATTCCGA | 0.165 |
| GACAAGGA | 0.0348 |
| GCATTGGC | -0.313 |
| CGCTTTCC | -0.13 |
| AATGACCC | -0.248 |
| AGAAGGAC | -0.226 |
| CCTTTTGC | 0.0933 |
| ACCAATCC | 0.0228 |
| ACGCTGGG | -0.202 |
| CGATGCGA | -0.112 |
| ACCAGAGT | 0.00189 |
| AGTCCTAA | 0.00524 |
| GTCACTTA | -0.0524 |
| CTCAGCTA | 0.161 |
| CTGTGAGC | -0.199 |

| Sequence | binding signal [E-score] |
| --- | --- |
| AGACCGTC | -0.26 |
| CAAAATAC | 0.287 |
| ACTGATAT | 0.262 |
| CGCAACAA | 0.0834 |
| ACTATCGC | 0.258 |
| AGCATTGC | 0.149 |
| GCTTTCCA | -0.2 |
| ACGATTCA | -0.0922 |
| CACAGTCA | -0.104 |
| GGTGTGCA | -0.136 |
| CCTCGAAG | -0.146 |
| GAATAACC | 0.0907 |
| CATGCAAA | -0.0437 |
| CTGGGTGC | -0.18 |
| AGGATAGC | 0.0389 |
| AGGGGTGA | -0.214 |
| AACGATCT | -0.0805 |
| GCTTGTAA | 0.0611 |
| AATCAGCC | -0.047 |
| ATATAAGA | 0.178 |
| ACACCGAA | -0.109 |
| CACTAGCC | -0.194 |
| TACCTTGA | -0.0852 |
| AGGGCCCT | -0.299 |
| ATTAAAAG | 0.221 |

| Sequence | binding signal [E-score] |
| --- | --- |
| ACTGTGCT | -0.154 |
| CTCAGGCA | -0.0605 |
| TAACCGGA | 0.000222 |
| CTTAGGTC | -0.15 |
| AGAGTAAC | -0.17 |
| CAATTCTC | 0.136 |
| AACCTTAG | -0.0495 |
| CACTCTCA | -0.116 |
| ATGGCAGC | -0.095 |
| TCTAAAGA | -0.19 |
| ACTAGTAC | 0.393 |
| AAACTATT | 0.448 |
| GAGGTGCC | -0.197 |
| CATGCATG | -0.157 |
| GACTACCC | 0.0938 |
| CCCATGCG | -0.23 |
| CGGGGGGC | -0.403 |
| CTTCAAGA | -0.229 |
| AATATCGT | 0.204 |
| AGAATTCA | 0.00405 |
| CTCGCCAA | -0.244 |
| ACACTTTA | 0.177 |
| CGAATAAA | 0.0212 |
| GGACCCAC | -0.209 |
| CGAGATGC | -0.108 |

| Sequence | binding signal [E-score] |
| --- | --- |
| ATGGTGCC | -0.109 |
| TATCCAGA | -0.0641 |
| CATGTCGG | -0.0338 |
| ATCTAAGA | 0.072 |
| GGAGATTA | 0.023 |
| CGGGTTCC | -0.159 |
| ATACCGCA | 0.0733 |
| GCCTCTCA | -0.126 |
| ATTCAGGA | -0.0178 |
| CTTGCGGC | -0.167 |
| AGTGCCTG | -0.165 |
| CGGTCATC | -0.167 |
| GGTGTGGA | -0.195 |
| AGATTTCG | 0.0883 |
| CGTAGCAG | -0.02 |
| CCTACCAA | 0.0829 |
| CCCCCGGG | -0.191 |
| AATAGAAG | 0.071 |
| ATACAGGG | -0.0942 |
| ACGAAGAT | 0.106 |
| CGCGACGC | -0.136 |
| GCGGGATA | -0.0682 |
| AGCCTTAG | -0.12 |
| CTGACGAC | -0.0534 |
| AGTGCCCG | 0.0213 |

| Sequence | binding signal [E-score] |
| --- | --- |
| AGATGTCA | -0.00931 |
| CATCGGAA | -0.148 |
| CGGTACCA | 0.154 |
| CAAGGATC | 0.0369 |
| CTATCTGA | 0.162 |
| GCATTAAA | -0.0275 |
| CATGGCAC | 0.0751 |
| ACCGATAA | 0.152 |
| CTGACGGC | -0.325 |
| ACCGGACG | -0.107 |
| AACCTGTC | -0.137 |
| ACAGCGGA | 0.142 |
| CGAAAGCC | -0.216 |
| ACAGCCCG | -0.173 |
| CGGGGTGC | -0.247 |
| CATTGCCA | -0.117 |
| CTGGGTCA | -0.0899 |
| CCACAGTA | -0.122 |
| CCACTCTA | -0.0417 |
| TAACCAAA | 0.123 |
| GAAAATAC | 0.279 |
| CACGTGGG | -0.186 |
| GTAGTCCA | 0.0264 |
| TATACTAA | 0.382 |
| ATAAATGA | 0.187 |

| Sequence | binding signal [E-score] |
| --- | --- |
| ATTCCCGG | -0.0582 |
| CACATTAA | 0.186 |
| CCTTTTTA | 0.169 |
| CTGCCTAA | 0.106 |
| ACCAGACC | -0.00378 |
| CTTTATAC | 0.227 |
| ACGTTACC | 0.0717 |
| CTGTACGC | -0.19 |
| ATGCTCTG | -0.2 |
| AATTGGGG | 0.0274 |
| ATACCTTG | 0.0513 |
| CAGCGATC | -0.0229 |
| CCTTCAAA | -0.148 |
| ACCTCGAC | -0.135 |
| CGCACAAA | -0.112 |
| CAAACGTG | -0.085 |
| CTACGCAC | -0.0856 |
| AGTCGGGC | -0.2 |
| ACGTCAAT | 0.169 |
| ACTCCGAT | 0.156 |
| CAAGAGAA | 0.0949 |
| AAAATGGT | 0.0133 |
| AAGCCACT | -0.139 |
| GCCACAGC | -0.362 |
| CGATCGAG | -0.107 |

| Sequence | binding signal [E-score] |
| --- | --- |
| ATGTCGCA | -0.131 |
| CCCCCCTC | -0.365 |
| GAGGCCGC | -0.233 |
| AATTGTTG | 0.151 |
| CCATAGGA | 0.0814 |
| ACATAGGC | -0.0798 |
| GCAGCCGA | -0.362 |
| GTACTCGA | -0.0223 |
| ATTTCGGC | 0.147 |
| GGGAGCAC | -0.183 |
| GTGTTCCA | -0.345 |
| AGCCTGTG | -0.0607 |
| TCGGGAGA | -0.0327 |
| TAGAATAA | 0.243 |
| CCCAGAAC | -0.105 |
| AGCCATAG | -0.106 |
| GTTGACAA | -0.0946 |
| CAGAGCAA | -0.119 |
| ATGAGCGC | -0.0901 |
| CCCCGTCA | -0.184 |
| GCACGTGA | 0.04 |
| ACATGGTC | -0.0861 |
| CCTGGGGC | -0.273 |
| CTGATAAG | 0.0786 |
| ACCATGAC | -0.0314 |

| Sequence | binding signal [E-score] |
| --- | --- |
| CGTTGTCA | 0.0104 |
| AACTGTGC | -0.0207 |
| CTCGTAAA | 0.123 |
| CTTATTCA | 0.048 |
| CTTGGGGA | -0.0504 |
| CAGCCCGG | -0.138 |
| CACAGACC | -0.0415 |
| CGATATTA | 0.286 |
| AGCCTCCA | -0.243 |
| ATCACCAT | 0.0924 |
| AATTGTCG | 0.0528 |
| CCAAAGAG | -0.23 |
| GGTCACAA | -0.128 |
| AATACCCT | -0.00373 |
| GATTGCAC | 0.024 |
| ACGACTCC | -0.173 |
| AACGAAGC | -0.117 |
| GTAACGAA | 0.154 |
| CGAATCTC | -0.139 |
